From PubChem BioAssay AID463173 (ICCB-Longwood Screening Facility, Harvard Medical School, 2010)
Hit rate of the full screen: of about 52,000 compounds, about 1,700 (3.3%) were called active. No stated cut-off is given here; in the data, active means survival mostly below about 52% (no sharp cut-off); inactive means mostly above about 56%. Some of the results follow.

System: Wild type
Assay: growth inhibition of S. aureus wild type versus tarO mutant, primary screen, teichoic acid synthesis inhibitors, RN4220, OD600 (AID 463173)
Details: S. aureus RN4220 wild type/DeltatarO growth, OD600, 18 h, active compounds read low, screened at 18.75 µg/mL (by protocol)

| SMILES | survival |
| --- | --- |
| Cc1cccc(OCc2nnc(-c3ccccc3)o2)c1 | inactive: 73% |
| COc1cccc(NC(=O)c2sc3nc(C)c(C(=O)Nc4ccc(C)cc4C)c(-c4cccs4)c3c2N)c1 | inactive: 145% |
| Cc1ccc(-c2nc(-c3cc4cccc(OCc5cccc(F)c5)c4oc3=O)no2)cc1 | inactive: 60% |
| CCOc1ccc(-n2c(Cc3ccccc3)nnc2SCc2nc(-c3cccs3)no2)cc1 | inactive: 75% |
| Cn1c(=N)n(CC(=O)c2ccc(-c3ccccc3)cc2)c2ccccc21 | inactive: 120% |
| Cc1ccn2c(Nc3c(C)cccc3C)c(-c3ccc(Cl)s3)nc2c1 | inactive: 32% |
| Cc1cc(C)cc(NC(=O)C2CCN(S(=O)(=O)c3c(C)noc3/C=C/c3ccco3)CC2)c1 | inactive: 94% |
| CCCCN(CCCC)C1=C(C(=O)c2ccccc2)N(CC)S(=O)(=O)c2ccccc21 | inactive: 67% |
| COC(=O)CN1C(=O)C(C)(C)c2cc(S(=O)(=O)NCc3ccc(Cl)cc3)ccc21 | inactive: 56% |
| Cc1ccc2scc(N3CCN(c4cccc(C(F)(F)F)c4)CC3)c(=O)c2c1 | inactive: 73% |
| CC1SC(c2ccccc2)N(Cc2ccccc2)C1=O (stereo not given) | inactive: 122% |
| Cc1cccc(CN2CCC(C(=O)N3CCC(C)CC3)CC2)c1 | inactive: 102% |
| CCCCCc1ccc(-c2ccc(C(=O)Oc3ccc(C(=O)OC)cc3)cc2)nc1 | inactive: 74% |
| COc1ccccc1Nc1c2c(nc3ccc(NC(=O)/C=C/c4cc(OC)c(OC)c(OC)c4)cc13)CCCC2 | inactive: 91% |
| CC(C)c1ccc(NC(=O)C2Cc3ccccc3N2C(=O)c2ccccc2)cc1 (stereo not given) | inactive: 97% |
| COc1ccc(CNc2nc(-c3ccc(Cl)cc3)nn2C(=O)c2ccccc2)cc1 | inactive: 37% |
| CC(C)CCn1nnnc1CN1CCN(C(=O)c2ccco2)CC1 | inactive: 107% |
| C/C(=N\NC(=O)c1ccc(N)cc1)C(C)(C)C | inactive: 109% |
| O=C(NCCN1CCCC1)c1ccc(Cl)cc1 | inactive: 97% |
| COc1ccccc1CNC(=O)c1ccc(CSc2nc3ccncc3n2Cc2ccccc2C)cc1 | inactive: 83% |
| Cc1ccc(S(=O)(=O)C2(C(=O)Nc3ccc(C(C)C)cc3)CC2)cc1 | inactive: 64% |
| Cc1ccc(-n2ncc(C(=O)N3CCN(c4ncccn4)CC3)c2C2CCN(C(=O)OC(C)(C)C)CC2)cc1 | inactive: 71% |
| Cc1cc(C)cc(N2C(=O)CS(=O)(=O)C23C(=O)N(C)c2ccccc23)c1 (stereo not given) | inactive: 81% |

| SMILES | survival |
| --- | --- |
| Cc1nc(-c2ccc(S(=O)(=O)N(C)Cc3ccccc3)cc2)co1 | inactive: 74% |
| CCn1c2ccccc2c2nnc(N3CCN(c4ccc(OC)cc4)CC3)nc21 | inactive: 85% |
| COc1ccc(-c2cc(C(F)(F)F)nc(SCCC(=O)Nc3ccc(O)cc3)n2)cc1 | inactive: 76% |
| CCOC(=O)Cn1nc(C)c(NC(=O)COc2ccc(C)c(C)c2)c1C | inactive: 76% |
| CCN(CC)C(=O)CSc1cn(CC(=O)N2CCCCCC2)c2ccccc12 | inactive: 99% |
| Cc1ccc(NC(=O)C2CCN(c3nc4ccccc4nc3C(F)(F)F)CC2)cc1C | inactive: 81% |
| CCCN(CCC)S(=O)(=O)c1ccc(N2CCCCS2(=O)=O)cc1 | inactive: 72% |
| CCOc1ccc(-n2cc(-c3ccccc3)c3c(NCc4ccc(F)cc4)ncnc32)cc1 | inactive: 66% |
| CCC1(c2ccccc2)NC(=O)NC1=O (stereo not given) | inactive: 99% |
| Cc1ccc(C)c(NC(=O)CSc2ncc3c(n2)-c2ccccc2N(Cc2ccccc2C)S3(=O)=O)c1 | inactive: 76% |
| COc1ccc(/C=C/c2nc(C#N)c(N3CCCCCC3)o2)cc1OC | inactive: 73% |
| Nc1ccc(Cc2ccccc2)cc1 | inactive: 112% |
| O=C(Cn1cc(S(=O)(=O)c2ccc(Cl)cc2)c(=O)c2ccccc21)Nc1ccc2c(c1)OCO2 | inactive: 66% |
| O=C1OC(C(=O)O)Cc2ccccc21 (stereo not given) | inactive: 102% |
| Fc1ccc([C@@H]2Nc3ccccc3[C@@H]3C=CC[C@@H]32)cc1 | inactive: 88% |
| Cc1ccc(C)c(Nc2ncnc3c2cnn3-c2ccc(F)cc2)c1 | active: -3% |
| COc1ccc(C)cc1NS(=O)(=O)c1ccc(-c2cnc(C3CC3)o2)cc1 | inactive: 68% |
| COc1ccc(CNS(=O)(=O)c2ccc3c(c2)NC(=O)C(C)C(=O)N3)cc1 (stereo not given) | inactive: 93% |
| Cc1nnc(N2CCC(C(=O)N3CCCCC3)CC2)c2nn(-c3ccccc3)c(C)c12 | inactive: 140% |
| Cc1ccc(C)c(S(=O)(=O)Nc2ccc3c(c2)CCCN3C(=O)c2cccs2)c1 | inactive: 60% |
| O=C(N1CCOCC1)N1CCN(S(=O)(=O)c2ccccc2)C1 | inactive: 87% |
| COc1cc(NC(=O)Cn2c(=O)n(Cc3ccccc3Cl)c(=O)c3cc(OC)c(OC)cc32)cc(OC)c1 | inactive: 71% |
| COc1ccc(CNc2n[nH]c(-c3ccco3)n2)cc1OC | inactive: 85% |

| SMILES | survival |
| --- | --- |
| CCc1ccc(Nc2ncnc3sc4c(c23)CCCC4)cc1 | inactive: 68% |
| O=C(NCCc1ccccc1)c1cc(-c2cccc(Cl)c2)on1 | inactive: 87% |
| COc1ccc(CCN2C(=O)N(c3ccc(F)cc3)C(=O)C2CC(=O)Nc2ccccc2)cc1OC (stereo not given) | inactive: 73% |
| CCCN(C(=O)c1cc2c(=O)n(CC)c3ccccc3c2s1)c1ccccc1F | inactive: 74% |
| CCCc1c(C(=O)OCC)nnc2c(-c3ccccc3)c(C)nn12 | inactive: 65% |
| COc1cc(NC(=O)c2cc3nc(-c4ccc(C)cc4)cc(C(F)(F)F)n3n2)cc(OC)c1OC | inactive: 53% |
| COc1ccc(C2c3c(n(C)c4ccccc34)C(=O)N2CC(=O)Nc2ccccc2Cl)cc1 (stereo not given) | inactive: 135% |
| O=C(c1ccc(Nc2nc3ccccc3n3nnnc23)cc1)N1CCN(c2ccc(F)cc2)CC1 | inactive: 76% |
| CCc1ccc(NC(=O)c2cc(S(=O)(=O)N3CCCCC3)c[nH]2)cc1 | inactive: 121% |
| COc1ccc(CCNC(=O)c2cnc3sc(N4CCOCC4)nn3c2=O)cc1OC | inactive: 84% |
| COc1ccc(OCc2ccc(-c3nc(C#N)c(N4CCC(C(N)=O)CC4)o3)o2)cc1 | inactive: 109% |
| Cc1ccc(CNC(=O)c2nnn(Cc3ccc(F)cc3)c2N)cc1 | inactive: 87% |
| O=S(=O)(Nc1ccc(F)cc1F)c1ccc(Br)s1 | inactive: 50% |
| COc1ccc(CCNC(=O)c2c[nH]n3c(=O)c(Cc4ccccc4Cl)c(C)nc23)cc1OC | active: 0% |
| O=C(Nc1cc(-c2nc3cc(Cl)ccc3o2)ccc1Cl)c1cccc2ccccc12 | inactive: 69% |
| CCn1c2c(c(=O)n3ncc(C(=O)Nc4ccc(OC(F)(F)F)cc4)c13)CN(Cc1ccc(OC)cc1)CC2 | inactive: 83% |
| Cc1ccc2c(c1)cc1c(=O)n(CC(=O)NC(C)CCc3ccccc3)nc(C)n12 (stereo not given) | inactive: 87% |
| CC1CCN(c2ccc(-c3cccc(NS(=O)(=O)c4cccs4)c3)nn2)CC1 | inactive: 67% |
| O=C(NCc1cccs1)c1ccc(CSc2nc3cccnc3n2Cc2ccc(F)cc2)cc1 | inactive: 79% |
| COc1ccc(-c2nn(-c3ccc(F)cc3)c3c2cnc2cc4c(cc23)OCO4)cc1 | inactive: 71% |
| CCc1ccccc1NC(=O)CSc1nc2n[nH]c(C)c2c(=N)n1-c1cccc(C)c1 | inactive: 78% |
| COc1ccccc1CNc1ccc(-c2nc(-c3ccccc3C)no2)cc1[N+](=O)[O-] | inactive: 82% |
| Cn1c2c(c(=O)n(C)c1=O)C(c1ccccc1[N+](=O)[O-])CC(=O)N2 (stereo not given) | inactive: 88% |

| SMILES | survival |
| --- | --- |
| Cc1cc(C)cc(NC(=O)C2CCN(C(=O)c3cnn(-c4ccccc4)c3-n3cccc3)CC2)c1 | inactive: 83% |
| CC1CCn2c(nc3cc(C(=O)NCc4ccc(F)cc4)ccc32)C1 (stereo not given) | inactive: 82% |
| CCOc1nc(NC(=O)NS(=O)(=O)Oc2cccc(Cl)c2)nc(-c2ccccc2)n1 | inactive: 70% |
| O=C(Nc1ccc(F)c(F)c1)c1cc(S(=O)(=O)NCc2ccc3c(c2)OCO3)ccc1F | inactive: 98% |
| CCCCC(=O)Nc1nnc(SCc2cc(=O)n3cc(C)ccc3n2)s1 | inactive: 63% |
| CN1C(=S)NC(C)(C)CC1(C)O (stereo not given) | inactive: 102% |
| CCOC(=O)c1nn2c(C(F)(F)F)cc(-c3ccc(C)cc3)nc2c1Cl | inactive: 79% |
| Cc1ccc(CNC(=O)CSc2nc(=O)n(Cc3ccco3)c3c2CCC3)cc1 | inactive: 74% |
| COc1ccc(-c2c(C#N)c(SCC(=O)Nc3ccc(C)cc3)nc(C)c2C(=O)Nc2ccccc2)cc1 | inactive: 94% |
| O=C(O)CCSc1nnnn1-c1ccccc1 | inactive: 114% |
| COc1cccc(CNC(=O)CN2CCCN(Cc3ccccc3)S2(=O)=O)c1 | inactive: 74% |
| Cc1ccn2c(Nc3ccc4c(c3)OCO4)c(-c3ccc(Cl)cc3)nc2c1 | inactive: 80% |
| COc1ccc(C2=NC3(CCCCCC3)N(CC(=O)Nc3cccc(Cl)c3)C2=O)cc1 | inactive: 81% |
| CCOc1ccc(-n2nc3ccc(NC(=O)c4cccc(F)c4)cc3n2)cc1 | inactive: 96% |
| OCCCc1n[nH]c(=S)n1-c1ccccc1 | inactive: 103% |
| CCSc1nc2c([nH]c3ccccc32)c(=O)n1-c1cccc(OC)c1 | inactive: 75% |
| COc1cccc(NC(=O)Cn2c(=O)ccc3cc(S(=O)(=O)N4CCC(C)CC4)ccc32)c1 | inactive: 73% |
| COc1ccc(-c2csc(NCCCN(C)C)n2)cc1 | inactive: 103% |
| CCOc1ccc(-c2nnc(SCC(=O)NC(C)CC)nc2-c2ccc(OCC)c(OC)c2)cc1OC (stereo not given) | inactive: 60% |
| COc1ccc(-c2nc3ccccc3o2)cc1NC(=O)c1ccc(-c2ccc(Br)cc2)o1 | inactive: 73% |
| COc1cc(C(=O)Nc2cccc(OCc3cc(=O)n4cc(C)sc4n3)c2)cc(OC)c1OC | inactive: 90% |
